Here are results for 63 sequences from PMC12820563.

The other results are listed elsewhere or left out. The list includes weakly bound sequences.

This assay concerns the target T1, MBP-FoxP3dN (UniProt Q99JB6).
T1 sequence: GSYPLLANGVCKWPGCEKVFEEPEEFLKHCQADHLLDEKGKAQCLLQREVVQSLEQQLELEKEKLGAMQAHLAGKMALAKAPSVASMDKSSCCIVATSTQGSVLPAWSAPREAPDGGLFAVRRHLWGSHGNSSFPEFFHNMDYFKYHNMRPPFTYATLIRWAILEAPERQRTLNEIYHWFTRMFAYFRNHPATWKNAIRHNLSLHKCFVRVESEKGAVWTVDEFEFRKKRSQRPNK
The experiment in a line: PD-seq (MBP pull-down with sequencing). The note with it: 20 mM Tris-HCl pH 7.5, 100 mM NaCl, 1.5 mM MgCl2, 0.4 uM protein, 0.1 uM dsDNA library, 30 min, room temperature, amylose pull-down; high values mean tight binding; double strand, one strand shown.
Turning to “GATGATTGTTCTCCCAGCTGATGAATTTACCGGATCGAGTAAACAAATTTTCCTAATCTTTCTGTTCAAGCGCCATCTAC”, the binding signal (RPM ratio (pull-down/input)) stood at 0.251.
Consider “GATGATTGTTCTCCCAGCTGATGAATTGCCACCGTCGAGTAAACAAATTTTCCTAATCTTTCTGTTCAAGCGCCATCTAC”, for which the binding signal (RPM ratio (pull-down/input)) amounted to 0.928.
As to “GATGATTGTTCTCCCAGCTGATGAATTAGTTGGCTCGAGTAAACAAATTTTCCTAATCTTTCTGTTCAAGCGCCATCTAC”, the binding signal (RPM ratio (pull-down/input)) was 3.39.
For “GATGATTGTTCTCCCAGCTGATGAATTCTGGGCCTCGAGTAAACAAATTTTCCTAATCTTTCTGTTCAAGCGCCATCTAC”, the binding signal (RPM ratio (pull-down/input)) worked out at 0.36.
For “GATGATTGTTCTCCCAGCTGATGAATTGCGATGCTCGAGTAAACAAATTTTCCTAATCTTTCTGTTCAAGCGCCATCTAC”, the binding signal (RPM ratio (pull-down/input)) was 1.38.
Then “GATGATTGTTCTCCCAGCTGATGAATTTAGCCTATCGAGTAAACAAATTTTCCTAATCTTTCTGTTCAAGCGCCATCTAC”, with 2.18; and “GATGATTGTTCTCCCAGCTGATGAATTTGAGCTATCGAGTAAACAAATTTTCCTAATCTTTCTGTTCAAGCGCCATCTAC”, with 0.575; and “GATGATTGTTCTCCCAGCTGATGAATTATGAATATCGAGTAAACAAATTTTCCTAATCTTTCTGTTCAAGCGCCATCTAC”, with 0.727.
On to “GATGATTGTTCTCCCAGCTGATGAATTATGGCGATCGAGTAAACAAATTTTCCTAATCTTTCTGTTCAAGCGCCATCTAC”, for which the binding signal (RPM ratio (pull-down/input)) was determined as 0.831.
“GATGATTGTTCTCCCAGCTGATGAATTAGACTACTCGAGTAAACAAATTTTCCTAATCTTTCTGTTCAAGCGCCATCTAC”: the binding signal (RPM ratio (pull-down/input)) turned out to be 0.476.
To “GATGATTGTTCTCCCAGCTGATGAATTGACCCTCTCGAGTAAACAAATTTTCCTAATCTTTCTGTTCAAGCGCCATCTAC” belongs 0.32.
In the case of “GATGATTGTTCTCCCAGCTGATGAATTGCCAGTTTCGAGTAAACAAATTTTCCTAATCTTTCTGTTCAAGCGCCATCTAC”, the binding signal (RPM ratio (pull-down/input)) was determined as 0.628.
As to “GATGATTGTTCTCCCAGCTGATGAATTCAGCTCGTCGAGTAAACAAATTTTCCTAATCTTTCTGTTCAAGCGCCATCTAC”, the binding signal (RPM ratio (pull-down/input)) was found to be 0.502.
As to “GATGATTGTTCTCCCAGCTGATGAATTAAGAGTATCGAGTAAACAAATTTTCCTAATCTTTCTGTTCAAGCGCCATCTAC”, the binding signal (RPM ratio (pull-down/input)) was determined as 0.587.
On to “GATGATTGTTCTCCCAGCTGATGAATTCTGGTATTCGAGTAAACAAATTTTCCTAATCTTTCTGTTCAAGCGCCATCTAC”, for which the binding signal (RPM ratio (pull-down/input)) turned out to be 1.22.
As to “GATGATTGTTCTCCCAGCTGATGAATTGACTCCATCGAGTAAACAAATTTTCCTAATCTTTCTGTTCAAGCGCCATCTAC”, the binding signal (RPM ratio (pull-down/input)) is 0.407.
Then “GATGATTGTTCTCCCAGCTGATGAATTAACTGTCTCGAGTAAACAAATTTTCCTAATCTTTCTGTTCAAGCGCCATCTAC”, with 0.5; and “GATGATTGTTCTCCCAGCTGATGAATTCGACGGTTCGAGTAAACAAATTTTCCTAATCTTTCTGTTCAAGCGCCATCTAC”, with 0.409; and “GATGATTGTTCTCCCAGCTGATGAATTTAGGGTTTCGAGTAAACAAATTTTCCTAATCTTTCTGTTCAAGCGCCATCTAC”, with 1.06.
In the case of “GATGATTGTTCTCCCAGCTGATGAATTGCCCTCCTCGAGTAAACAAATTTTCCTAATCTTTCTGTTCAAGCGCCATCTAC”, the binding signal (RPM ratio (pull-down/input)) came to 0.471.
“GATGATTGTTCTCCCAGCTGATGAATTCCTAAGATCGAGTAAACAAATTTTCCTAATCTTTCTGTTCAAGCGCCATCTAC”: the binding signal (RPM ratio (pull-down/input)) turned out to be 0.174.
Take “GATGATTGTTCTCCCAGCTGATGAATTACCCGCCTCGAGTAAACAAATTTTCCTAATCTTTCTGTTCAAGCGCCATCTAC”: the binding signal (RPM ratio (pull-down/input)) stood at 0.472.
On to “GATGATTGTTCTCCCAGCTGATGAATTGCCAGGTTCGAGTAAACAAATTTTCCTAATCTTTCTGTTCAAGCGCCATCTAC”, for which the binding signal (RPM ratio (pull-down/input)) was 0.536.
Regarding “GATGATTGTTCTCCCAGCTGATGAATTCTCAGAGTCGAGTAAACAAATTTTCCTAATCTTTCTGTTCAAGCGCCATCTAC”, the binding signal (RPM ratio (pull-down/input)) stood at 0.203.
To “GATGATTGTTCTCCCAGCTGATGAATTCAATGTTTCGAGTAAACAAATTTTCCTAATCTTTCTGTTCAAGCGCCATCTAC” belongs 1.92.
For the sequence “GATGATTGTTCTCCCAGCTGATGAATTGATAGGCTCGAGTAAACAAATTTTCCTAATCTTTCTGTTCAAGCGCCATCTAC”, the binding signal (RPM ratio (pull-down/input)) is 0.394.
In the case of “GATGATTGTTCTCCCAGCTGATGAATTCTCCCGCTCGAGTAAACAAATTTTCCTAATCTTTCTGTTCAAGCGCCATCTAC”, the binding signal (RPM ratio (pull-down/input)) turned out to be 0.24.
As for “GATGATTGTTCTCCCAGCTGATGAATTGTTTGCGTCGAGTAAACAAATTTTCCTAATCTTTCTGTTCAAGCGCCATCTAC”, the binding signal (RPM ratio (pull-down/input)) was determined as 6.41.
With “GATGATTGTTCTCCCAGCTGATGAATTTCTAAGCTCGAGTAAACAAATTTTCCTAATCTTTCTGTTCAAGCGCCATCTAC”, the binding signal (RPM ratio (pull-down/input)) came out at 0.219.
Consider “GATGATTGTTCTCCCAGCTGATGAATTTGGAGGATCGAGTAAACAAATTTTCCTAATCTTTCTGTTCAAGCGCCATCTAC”, for which the binding signal (RPM ratio (pull-down/input)) was 0.321.
In the case of “GATGATTGTTCTCCCAGCTGATGAATTCGTCGAATCGAGTAAACAAATTTTCCTAATCTTTCTGTTCAAGCGCCATCTAC”, the binding signal (RPM ratio (pull-down/input)) stood at 0.229.
Take “GATGATTGTTCTCCCAGCTGATGAATTTGAAAATTCGAGTAAACAAATTTTCCTAATCTTTCTGTTCAAGCGCCATCTAC”: the binding signal (RPM ratio (pull-down/input)) is 0.171.
To “GATGATTGTTCTCCCAGCTGATGAATTCCGTATCTCGAGTAAACAAATTTTCCTAATCTTTCTGTTCAAGCGCCATCTAC” belongs 4.26.
Then “GATGATTGTTCTCCCAGCTGATGAATTAGGTATTTCGAGTAAACAAATTTTCCTAATCTTTCTGTTCAAGCGCCATCTAC”, with 2.06; and “GATGATTGTTCTCCCAGCTGATGAATTTTTCTACTCGAGTAAACAAATTTTCCTAATCTTTCTGTTCAAGCGCCATCTAC”, with 0.279; and “GATGATTGTTCTCCCAGCTGATGAATTGTCGCGCTCGAGTAAACAAATTTTCCTAATCTTTCTGTTCAAGCGCCATCTAC”, with 0.667.
In the case of “GATGATTGTTCTCCCAGCTGATGAATTTAATGCTTCGAGTAAACAAATTTTCCTAATCTTTCTGTTCAAGCGCCATCTAC”, the binding signal (RPM ratio (pull-down/input)) was determined as 1.55.
“GATGATTGTTCTCCCAGCTGATGAATTAGACACGTCGAGTAAACAAATTTTCCTAATCTTTCTGTTCAAGCGCCATCTAC”: the binding signal (RPM ratio (pull-down/input)) is 0.515.
To “GATGATTGTTCTCCCAGCTGATGAATTAGACGATTCGAGTAAACAAATTTTCCTAATCTTTCTGTTCAAGCGCCATCTAC” belongs 0.346; to “GATGATTGTTCTCCCAGCTGATGAATTTTGTGGGTCGAGTAAACAAATTTTCCTAATCTTTCTGTTCAAGCGCCATCTAC”, 1.96.
Then “GATGATTGTTCTCCCAGCTGATGAATTGCACTCCTCGAGTAAACAAATTTTCCTAATCTTTCTGTTCAAGCGCCATCTAC”, with 1.02.
Then “GATGATTGTTCTCCCAGCTGATGAATTTTGTGACTCGAGTAAACAAATTTTCCTAATCTTTCTGTTCAAGCGCCATCTAC”, with 2.36; and “GATGATTGTTCTCCCAGCTGATGAATTAGGGGCTTCGAGTAAACAAATTTTCCTAATCTTTCTGTTCAAGCGCCATCTAC”, with 0.434.
“GATGATTGTTCTCCCAGCTGATGAATTAGTGCGCTCGAGTAAACAAATTTTCCTAATCTTTCTGTTCAAGCGCCATCTAC”: the binding signal (RPM ratio (pull-down/input)) amounted to 0.74.
As to “GATGATTGTTCTCCCAGCTGATGAATTCACATTCTCGAGTAAACAAATTTTCCTAATCTTTCTGTTCAAGCGCCATCTAC”, the binding signal (RPM ratio (pull-down/input)) stood at 0.482.
To “GATGATTGTTCTCCCAGCTGATGAATTCGAGGTATCGAGTAAACAAATTTTCCTAATCTTTCTGTTCAAGCGCCATCTAC” belongs 0.576.
Turning to “GATGATTGTTCTCCCAGCTGATGAATTCAGGTGATCGAGTAAACAAATTTTCCTAATCTTTCTGTTCAAGCGCCATCTAC”, the binding signal (RPM ratio (pull-down/input)) is 0.457.
On to “GATGATTGTTCTCCCAGCTGATGAATTGCATGCATCGAGTAAACAAATTTTCCTAATCTTTCTGTTCAAGCGCCATCTAC”, for which the binding signal (RPM ratio (pull-down/input)) worked out at 3.74.
Then “GATGATTGTTCTCCCAGCTGATGAATTCTTTCAATCGAGTAAACAAATTTTCCTAATCTTTCTGTTCAAGCGCCATCTAC”, with 0.248; and “GATGATTGTTCTCCCAGCTGATGAATTACAGGTCTCGAGTAAACAAATTTTCCTAATCTTTCTGTTCAAGCGCCATCTAC”, with 0.596.
Then “GATGATTGTTCTCCCAGCTGATGAATTACAAGCTTCGAGTAAACAAATTTTCCTAATCTTTCTGTTCAAGCGCCATCTAC”, with 0.518; and “GATGATTGTTCTCCCAGCTGATGAATTACTGCACTCGAGTAAACAAATTTTCCTAATCTTTCTGTTCAAGCGCCATCTAC”, with 0.687.
For “GATGATTGTTCTCCCAGCTGATGAATTGGGCTATTCGAGTAAACAAATTTTCCTAATCTTTCTGTTCAAGCGCCATCTAC”, the binding signal (RPM ratio (pull-down/input)) worked out at 1.48.
On to “GATGATTGTTCTCCCAGCTGATGAATTACCACCATCGAGTAAACAAATTTTCCTAATCTTTCTGTTCAAGCGCCATCTAC”, for which the binding signal (RPM ratio (pull-down/input)) was 0.513.
As for “GATGATTGTTCTCCCAGCTGATGAATTTCCGCTTTCGAGTAAACAAATTTTCCTAATCTTTCTGTTCAAGCGCCATCTAC”, the binding signal (RPM ratio (pull-down/input)) amounted to 1.07.
Regarding “GATGATTGTTCTCCCAGCTGATGAATTAATGGGGTCGAGTAAACAAATTTTCCTAATCTTTCTGTTCAAGCGCCATCTAC”, the binding signal (RPM ratio (pull-down/input)) is 0.393.
As to “GATGATTGTTCTCCCAGCTGATGAATTTCACCAATCGAGTAAACAAATTTTCCTAATCTTTCTGTTCAAGCGCCATCTAC”, the binding signal (RPM ratio (pull-down/input)) amounted to 0.259.
Consider “GATGATTGTTCTCCCAGCTGATGAATTCGCGGTGTCGAGTAAACAAATTTTCCTAATCTTTCTGTTCAAGCGCCATCTAC”, for which the binding signal (RPM ratio (pull-down/input)) turned out to be 0.67.
For “GATGATTGTTCTCCCAGCTGATGAATTCATACGGTCGAGTAAACAAATTTTCCTAATCTTTCTGTTCAAGCGCCATCTAC”, the binding signal (RPM ratio (pull-down/input)) is 0.357.
For “GATGATTGTTCTCCCAGCTGATGAATTCGATTCTTCGAGTAAACAAATTTTCCTAATCTTTCTGTTCAAGCGCCATCTAC”, the binding signal (RPM ratio (pull-down/input)) amounted to 1.16.
Then “GATGATTGTTCTCCCAGCTGATGAATTCTCAGGCTCGAGTAAACAAATTTTCCTAATCTTTCTGTTCAAGCGCCATCTAC”, with 0.216; and “GATGATTGTTCTCCCAGCTGATGAATTGAATCACTCGAGTAAACAAATTTTCCTAATCTTTCTGTTCAAGCGCCATCTAC”, with 0.551; and “GATGATTGTTCTCCCAGCTGATGAATTTGGAGCCTCGAGTAAACAAATTTTCCTAATCTTTCTGTTCAAGCGCCATCTAC”, with 0.542.
